# The full ranking holds about 33,000 sequences; the median of “E-score (-0.5 to 0.5)” is about -0.035, and the highest 2% start at about 0.35. Some of the results follow.
# Molecular target: T1, Pdr3 (UniProt P33200)
# T1 sequence: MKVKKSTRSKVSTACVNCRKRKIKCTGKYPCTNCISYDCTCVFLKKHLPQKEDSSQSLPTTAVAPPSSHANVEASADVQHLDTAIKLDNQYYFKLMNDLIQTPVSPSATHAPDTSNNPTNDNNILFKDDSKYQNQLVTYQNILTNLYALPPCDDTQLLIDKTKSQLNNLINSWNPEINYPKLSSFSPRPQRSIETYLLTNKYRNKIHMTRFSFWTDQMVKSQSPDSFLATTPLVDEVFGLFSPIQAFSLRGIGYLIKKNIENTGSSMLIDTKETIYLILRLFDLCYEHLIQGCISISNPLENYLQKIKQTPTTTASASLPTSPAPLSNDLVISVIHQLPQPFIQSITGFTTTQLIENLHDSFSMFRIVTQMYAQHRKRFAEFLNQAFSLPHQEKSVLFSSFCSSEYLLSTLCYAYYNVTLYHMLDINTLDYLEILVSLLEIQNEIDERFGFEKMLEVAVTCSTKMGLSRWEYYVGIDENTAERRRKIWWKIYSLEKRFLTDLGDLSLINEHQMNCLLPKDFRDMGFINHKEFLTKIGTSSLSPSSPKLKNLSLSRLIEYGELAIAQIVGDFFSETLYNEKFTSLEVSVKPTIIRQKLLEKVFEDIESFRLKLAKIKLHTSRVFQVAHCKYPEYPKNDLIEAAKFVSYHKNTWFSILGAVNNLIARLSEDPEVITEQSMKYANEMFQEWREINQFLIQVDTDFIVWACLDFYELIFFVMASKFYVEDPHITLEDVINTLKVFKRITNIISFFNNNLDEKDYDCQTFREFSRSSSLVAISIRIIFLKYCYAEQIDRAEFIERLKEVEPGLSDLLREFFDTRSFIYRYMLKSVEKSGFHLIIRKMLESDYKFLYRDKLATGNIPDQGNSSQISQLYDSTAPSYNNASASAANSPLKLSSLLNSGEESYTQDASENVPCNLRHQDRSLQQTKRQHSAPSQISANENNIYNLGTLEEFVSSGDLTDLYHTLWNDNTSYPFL
# Assay: PBM E-score (8-mer binding enrichment) (E-score (-0.5 to 0.5)); higher = stronger / more preferred TF binding; most listed sequences are background and not binding sites
# Conditions: protein concentration: 200 nM; construct: GST-full length
# Method in brief: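 Each ungapped eight-base word and its reverse complement, pooled, received an E-score from the Universal PBM Analysis Suite. Underlying scans, normalised with masliner, recorded fluorescent anti-GST bound to GST-tagged yeast transcription factors. These were applied at about 100-200 nM to universal all-10-mer Agilent arrays double-stranded by primer extension.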
row,Sequence,PBM E-score
1,ACAAGGCG,0.0405
2,TCGCGCAA,0.0429
3,TTAAATAA,0.0779
4,CGTGGAGC,0.169
5,CAGGAATG,-0.178
6,ATCCGTAA,0.281
7,ATGCATCC,0.0555
8,GAATCCTA,0.0163
9,CCTGCACA,-0.222
10,ATGCATAA,-0.218
11,CCCGGTAC,0.233
12,CTTGGTGC,-0.191
13,CATTCATA,0.173
14,ACCCTAAG,-0.11
15,AAAGCCTA,-0.325
16,TCTCTTCA,0.00694
17,ATGTGTTA,-0.168
18,CTCCCCAG,-0.162
19,TAGGTGAA,0.016
20,CTAGGGCA,-0.263
21,AGTCTCGC,-0.065
22,AACGGCAA,0.0283
23,GCGACCAA,0.177
24,CGCGTAAA,0.0173
25,GTAGGAAC,-0.07

row,Sequence,PBM E-score
1,GAATACCA,0.00976
2,AAAGGGGC,-0.135
3,AAGCCGGG,0.262
4,TCCCTACA,-0.0653
5,CGTTGTGA,-0.03
6,CCTCTCAC,-0.203
7,CCCAAGTC,-0.154
8,CACAGAAA,0.0151
9,GACTATGA,-0.132
10,CGGCATAA,0.16
11,CTCAGGGC,-0.00924
12,CTGCCTCC,0.00485
13,TTAACCAA,-0.184
14,GAAACGCA,-0.0109
15,ACCTTGGC,-0.0857
16,CAAACATG,-0.204
17,CTTGGTTC,0.148
18,ACGTCGTC,0.0431
19,CACAATAC,0.00132
20,AGCCAAAA,-0.171
21,AGTTCGTA,0.0718
22,TGCGTCCA,-0.0375
23,CTTCCGCA,0.307
24,ACATATCA,-0.00498
25,CTGGAAAG,-0.159

row,Sequence,PBM E-score
1,CGAGTGGC,-0.0326
2,CTATGGAA,-0.0147
3,ATACGTTA,-0.185
4,AACGATAG,-0.102
5,CTAGCCCC,-0.259
6,ATCAGAGC,0.0756
7,GCACTAGA,-0.19
8,CCTCGTGC,0.00448
9,CCTCGGAA,0.442
10,CAAGCGAC,-0.00572
11,GCTTAGCA,-0.0836
12,ACTCATAG,-0.0938
13,GATGAACA,-0.00549
14,CTTGTTTC,-0.0483
15,ATCTTCAT,0.0898
16,ACCCTCTA,-0.175
17,ACATGGAT,-0.0656
18,AACTGCGT,-0.252
19,CATCTTTA,-0.128
20,AAAATTAT,0.179
21,ATAGTCCC,-0.00549
22,AACGACAC,-0.161
23,ATCCGGAA,0.464
24,GCGCGGCA,0.237
25,TACCGTAA,-0.0723

row,Sequence,PBM E-score
1,GCTATCGA,-0.0824
2,AAAGGGTC,0.0018
3,AGGGCACG,-0.0543
4,GTAGTCCA,-0.225
5,CTCCTCAC,-0.154
6,CTCAATAA,-0.208
7,AGTCCAAT,0.00894
8,TCAACACA,-0.0355
9,CTTGTAGA,-0.27
10,CGAACTAG,0.0329
11,CAGTTTCA,-0.19
12,CGTCTATC,-0.139
13,GTACCCAC,0.0632
14,CATAGTAC,-0.0189
15,GAACCCTC,-0.0665
16,GGTTCCGA,0.476
17,CTTCCGCC,0.336
18,ATCATTGA,-0.0198
19,GTATGACA,-0.109
20,ATGAGAGC,-0.0519
21,GAACTTAA,-0.0459
22,TTAACGAA,0.0378
23,AGGCACGC,0.049
24,GTTTGCTA,-0.0539
25,CCACTATC,-0.0446

row,Sequence,PBM E-score
1,GTAACATA,0.0403
2,AGCAGTGC,-0.146
3,TTGCGCAA,-0.0494
4,TAGGCGGA,0.258
5,CGGTGGGC,0.0391
6,CAACCTTG,-0.0444
7,AATTTACT,-0.0427
8,TAGGGTCA,-0.214
9,ACATCGAC,-0.101
10,AACTTCGA,-0.0768
11,CTCAGATA,-0.00418
12,AGAACGTG,0.0682
13,AATAACAT,0.113
14,CTTATTGC,-0.174
15,AAGTATGT,-0.225
16,CAGGCGCA,-0.00764
17,AGGCGCAA,0.0694
18,TTCCGCAA,0.404
19,ATCCGAAG,0.22
20,ATATCCCG,0.357
21,CCCGGACG,0.223
22,ATCACCAA,-0.112
23,AGACCGCC,0.0729
24,CGCATTTA,0.0284
25,CCCAGAGG,-0.225

row,Sequence,PBM E-score
1,ATCCCACC,0.266
2,CACATGAA,-0.0897
3,ATAAGAAC,0.139
4,TCTTCGAA,-0.191
5,CTAAGAAC,0.165
6,AACTTATA,0.0751
7,ATCAGCGG,0.364
8,CAGCACGG,0.23
9,ACGAGTAG,0.0576
10,AGGCTCTC,-0.179
11,CCCTAGTC,-0.343
12,CCACCGTA,-0.103
13,GAAGGCTC,-0.105
14,CTGACGCA,-0.18
15,GATTAGCC,-0.0437
16,CAATGCCG,0.263
17,TATTCTCA,-0.0987
18,AAATACGG,0.0148
19,AATTTGCC,0.0572
20,CTTCGACC,0.054
21,ATACCAAT,0.0683
22,CCTGAGCG,-0.147
23,TACGTCAA,-0.113
24,ATTCCTTA,-0.115
25,ACCATTAA,0.197

row,Sequence,PBM E-score
1,AACCCAGA,-0.0664
2,AACTAATG,0.0081
3,CTGTGCAA,-0.105
4,CCGTGACC,0.123
5,AACGGTGT,-0.139
6,GCAGTGAA,0.067
7,CAGTACTC,-0.146
8,CACACATA,-0.104
9,GTAGAGTA,-0.145
10,GGTCACAA,-0.169
11,GACTAATC,0.131
12,GTCCCAAC,-0.15
13,CAAGGTGC,-0.00425
14,ACTAATTC,0.07
15,AACCTGGC,-0.0888
16,CGAGATGA,0.017
17,CCCCTGGC,-0.0768
18,CAGTGAAG,-0.214
19,ATCTTGGG,0.00443
20,AGTGATTC,-0.0203
21,ACGGTAAT,0.0577
22,ACATCAGA,-0.0935
23,AAAGGCCC,-0.153
24,AGCATTCA,-0.0565
25,GATGCATC,0.222

row,Sequence,PBM E-score
1,ATCCATAA,0.12
2,CATTTAAC,-0.26
3,CCCAAGGA,-0.147
4,CTCGCCAC,-0.0355
5,GTATCGAC,0.102
6,ATTCACCG,0.254
7,CAACGGGG,0.0538
8,CCGTCAAG,0.195
9,AACAATAA,0.226
10,ATCACCAT,0.0336
11,AAACGCCG,0.149
12,AGTCTAAC,-0.166
13,ACCTCTGA,0.045
14,GAGAGGGC,-0.206
15,GCAACACA,-0.0231
16,AACCATGT,-0.0629
17,ACCGAATG,-0.0335
18,AGACTGCT,-0.245
19,AGATCTGC,-0.142
20,GCGTTCCC,0.139
21,AAACATCT,-0.119
22,GGTATCCA,0.0326
23,AACTAGCA,0.0576
24,GTTGGTCA,0.0152
25,ACATCCTG,0.0637

row,Sequence,PBM E-score
1,AGTAATCG,0.071
2,AATCTGTA,-0.0192
3,ATCACATC,-0.0522
4,GTCCTACA,0.0998
5,ACTTGATC,-0.117
6,GGACGTTA,0.0197
7,AGCATAAG,-0.0742
8,AAAATCCA,0.0216
9,GACTACCC,-0.0793
10,AATAGGCG,0.313
11,AACTCTGT,0.0808
12,CGCCTACC,-0.0645
13,AGACGTGC,-0.0174
14,AGCCTGTA,-0.149
15,GCGTAAGA,-0.0814
16,AACGGAGG,0.185
17,AGCATTGC,-0.145
18,GGGTACAA,-0.0884
19,CGGCAAAG,0.166

# Reference: the supplement of paper PMC3334620
